Test results published in PMC4336329 (PLoS ONE, 2015).
Hit rate of the full screen: of about 310,000 compounds, about 14,000 (4.5%) showed an effect of 50% or more. Effects have a minus sign here. The list shows a part of the results.

The compounds below were run against human ether-à-go-go-related gene (hERG) potassium channel (human, UniProt Q12809) (assay: primary screen, population patch clamp on CHO cells stably expressing hERG).
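Also: peak tail current of the secondary pulse compared with the same well before compound.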

human ether-à-go-go-related gene (hERG) potassium channel, sequence (Q12809 whole entry, looked up): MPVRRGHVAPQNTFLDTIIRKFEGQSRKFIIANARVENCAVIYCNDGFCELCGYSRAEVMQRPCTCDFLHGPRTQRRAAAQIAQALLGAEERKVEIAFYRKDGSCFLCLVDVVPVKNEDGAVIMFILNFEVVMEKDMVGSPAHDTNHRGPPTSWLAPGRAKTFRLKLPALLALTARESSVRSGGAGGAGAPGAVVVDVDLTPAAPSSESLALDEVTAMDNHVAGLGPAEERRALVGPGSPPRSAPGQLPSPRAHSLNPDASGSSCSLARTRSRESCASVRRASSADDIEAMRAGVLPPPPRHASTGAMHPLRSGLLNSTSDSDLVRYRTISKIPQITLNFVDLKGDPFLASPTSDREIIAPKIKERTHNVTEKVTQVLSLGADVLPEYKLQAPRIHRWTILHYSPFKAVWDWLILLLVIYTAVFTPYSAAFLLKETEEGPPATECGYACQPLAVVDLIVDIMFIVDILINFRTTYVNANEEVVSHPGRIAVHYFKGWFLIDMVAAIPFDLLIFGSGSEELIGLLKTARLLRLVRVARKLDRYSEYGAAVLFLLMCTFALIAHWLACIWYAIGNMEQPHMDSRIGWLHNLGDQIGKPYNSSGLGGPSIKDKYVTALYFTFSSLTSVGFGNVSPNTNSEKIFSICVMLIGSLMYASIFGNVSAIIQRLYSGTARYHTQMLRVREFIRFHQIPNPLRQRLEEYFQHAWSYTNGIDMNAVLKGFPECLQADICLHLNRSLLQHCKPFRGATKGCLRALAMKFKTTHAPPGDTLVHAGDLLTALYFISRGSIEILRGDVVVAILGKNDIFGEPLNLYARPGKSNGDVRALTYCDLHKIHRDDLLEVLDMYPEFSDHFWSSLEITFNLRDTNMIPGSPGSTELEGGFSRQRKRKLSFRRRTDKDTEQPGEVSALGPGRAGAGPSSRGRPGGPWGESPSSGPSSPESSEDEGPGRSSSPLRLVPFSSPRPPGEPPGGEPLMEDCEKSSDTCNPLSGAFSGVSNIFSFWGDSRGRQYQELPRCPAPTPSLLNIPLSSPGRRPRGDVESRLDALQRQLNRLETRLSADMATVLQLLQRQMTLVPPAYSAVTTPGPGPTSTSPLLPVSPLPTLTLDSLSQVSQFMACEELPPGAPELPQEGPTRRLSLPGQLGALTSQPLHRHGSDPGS

Row | Compound | hERG current change (%, negative = inhibition) at 10uM [%]
1 | COc1ccc2cc(CN(C(=O)Nc3ccccc3)C3CCCC3)c(=O)[nH]c2c1 | -60.5
2 | CCOC(=O)C(=O)Nc1ncc(Cl)s1 | 0.621
3 | CCCn1c(=N)n(CC(O)c2ccco2)c2ccccc21.Cl (stereo not drawn) | -43.8
4 | CCCC(=O)n1nc(-c2ccc(OC)cc2)nc1N | 5.3
5 | CS(=O)(=O)c1ccc(C(=O)N2CCN(Cc3ccccc3)CC2)cc1 | -55
6 | Cc1cc(NC(=O)c2c(-c3c(Cl)cccc3Cl)noc2C)n(C)n1 | 16
7 | O=S(=O)(NC(=S)NC1CCCCC1)c1ccc(Br)cc1 | 9.58
8 | CC(C)c1ccc(CC(NC(=O)c2ccccc2)C(=O)NCC(=O)O)cc1 (stereo not drawn) | 31.2
9 | C=CCN1C(=O)N(c2ccc(F)cc2)C(=O)C1CC(=O)Nc1ccc(Cl)cc1 (stereo not drawn) | 8.38
10 | COc1ccc(C(=O)NNC(=O)c2ccccc2[N+](=O)[O-])cc1[N+](=O)[O-] | 2.32
11 | CCOC(=O)c1ccc2c(c1)nc(SCc1cn3ccsc3n1)n2CC | -40
12 | COc1ccc2[nH]c(=O)c(CN(CCN(C)C)C(=O)NCc3ccccc3)cc2c1 | 9.31
13 | Cc1c(NC(=O)c2ccc3c4c(cccc24)CC3)c(=O)n(-c2ccccc2)n1C | 4.88
14 | COC(=O)CN1C(=O)Nc2ccc(Cl)cc2C1c1ccccc1 (stereo not drawn) | 7.58
15 | O=C1c2ccccc2NC(c2ccc(Br)s2)N1O (stereo not drawn) | 12.8
16 | CC(C)C1Nc2ccc(S(=O)(=O)N3CCOCC3)cc2NC1=O (stereo not drawn) | 29.6
17 | CS(=O)(=O)N(CC(=O)Nc1ccc(S(=O)(=O)N2CCCC2)cc1)c1ccccc1 | 19.8
18 | CCOc1ccc(CC(=O)N2N=C(C)CC2(O)C(F)(F)F)cc1 (stereo not drawn) | 6.66
19 | CC(=NCCCO)c1c(O)n(Cc2ccccc2)c(=O)[nH]c1=O | 8.83
20 | O=C(NCCNC(=O)c1ccccc1Cl)c1ccco1 | 20.6
21 | Nc1c(-c2ccc(Cl)cc2)cnn1C1CCS(=O)(=O)C1 (stereo not drawn) | -11.8
22 | O=C(CSc1nccc(=O)[nH]1)NN(c1ccccc1)c1ccccc1 | 7.73
23 | CCN(CC)CCCN1C(=O)c2oc3ccccc3c(=O)c2C1c1cccs1 (stereo not drawn) | 6.51

Row | Compound | hERG current change (%, negative = inhibition) at 10uM [%]
24 | COc1cc(/C=C2/C(=O)NN(c3ccccc3)C2=O)cc(Br)c1O | 13
25 | CCCn1c(Sc2nnnn2-c2ccccc2)n[nH]c1=O | 6.32
26 | Cc1ccc(/C=C/C(=O)O)cc1S(=O)(=O)N(CCO)CCO | 8.09
27 | O=S(=O)(NC1CC2CCC1C2)c1ccc(Cl)cc1 (stereo not drawn) | 12.8
28 | Cc1ccc(N2N=C(c3ccc(Br)cc3)CCC2=O)cc1 | 13.8
29 | CN(C(=O)COC(=O)C1CCN(S(=O)(=O)c2c(Cl)cccc2Cl)CC1)C1CCS(=O)(=O)C1 (stereo not drawn) | -37.8
30 | COc1cccc(-n2cnc3sc(C)cc3c2=O)c1 | -1.36
31 | COC(=O)c1cc2oc3ccccc3c2n1CC(=O)Nc1ccccc1OC | -3.85
32 | COc1ccc(/C=N/NC(=S)Nc2ccccc2)cc1COc1ccc(F)cc1F | 3.62
33 | O=C1c2ccccc2NC(c2ccccc2)N1Cc1ccco1 (stereo not drawn) | -27.6
34 | Cc1ccccc1-c1nc(-c2ccc(Br)o2)no1 | 3.44
35 | Cc1c(NC(=O)COC(=O)C2(c3ccc(F)cc3)CCCC2)c(=O)n(-c2ccccc2)n1C | -2.07
36 | O=C(O)CCc1ccc(-c2ccc(Cl)cc2)n1CC(=O)Nc1ccccc1 | 13.1
37 | O=C(COC(=O)c1ccc(Br)o1)Nc1ncc([N+](=O)[O-])s1 | 10.6
38 | O=C(Nc1ccc(F)cc1)Nc1nnc(-c2ccncc2)s1 | 3.57
39 | O=C(CSc1nc2nc(-c3cccs3)cc(C(F)(F)F)c2c(=O)[nH]1)NCc1ccco1 | -0.232
40 | CCOC(=O)CN(C(=O)Cn1nnc(-c2ccc(C)cc2)n1)C(CC)C(=O)NC1CCCC1 (stereo not drawn) | -8.67
41 | CC(Sc1nc(N)c(NC(=O)c2ccc(Br)o2)c(=O)[nH]1)C(=O)O (stereo not drawn) | -15.1
42 | Cc1ccccc1N1C(=O)C(Oc2ccc(Cl)cc2)C1CNCCCOC(C)C (stereo not drawn) | -53.4
43 | Cc1cc(=O)[nH]c2c1c(C)nn2C1CCCCC1 | -3.84
44 | O=C(CCN1C(=O)/C(=C\c2ccccc2)SC1=S)NCCCN1CCOCC1 | -15
45 | COc1ccc2c(c1)C1NC(=S)NC(C)(O2)C1C(=O)Nc1ccccc1C (stereo not drawn) | -16.9
46 | CCC(CO)N=CC1=C(O)CC(c2ccccc2)CC1=O (stereo not drawn) | 17.1

Row | Compound | hERG current change (%, negative = inhibition) at 10uM [%]
47 | Cc1c(N2C(=O)C3C4C=CC(C4)C3C2=O)c(=O)n(-c2ccccc2)n1C (stereo not drawn) | 12.5
48 | CCc1nnc(NC(=O)c2ccc(COc3ccccc3C)o2)s1 | 13.8
49 | Cl.Nc1nonc1C(=O)NCCNCc1c(OCc2ccccc2F)ccc2ccccc12 | -11.9
50 | Cc1cccc(C)c1OCCNC(=O)c1ccc2ccccc2n1 | 5.09
51 | O=C(COc1coc(CN2CCc3ccccc32)cc1=O)NCCc1ccccc1 | 1.23
52 | Cc1cc(C(=O)CSc2nnnn2-c2ccc(O)cc2)c(C)n1C | 4.74
53 | Cc1ccc(C)c(S(=O)(=O)Nc2ccc(C(=O)N3CCC3)cc2)c1 | 1.64
54 | Cc1cc(OCC(=O)NCCN2CCOCC2)c2c(C)c(C)c(=O)oc2c1 | 8.1
55 | CC1Cc2ccccc2N1C(=O)CO/N=C/c1ccc(OC(F)F)cc1 (stereo not drawn) | -38.3
56 | CCOC(=O)C1CCN(C(=O)CSc2ccc(Br)cc2)CC1 | -36
57 | COc1ccc(-c2ccnc(SCC(=O)c3ccc(Br)cc3)n2)cc1 | 4.26
58 | CCOC(=O)c1cn(CC(=O)Nc2ccc(C)cc2)nn1 | -1.09
59 | Cc1ccc(S(=O)(=O)Nc2nc3ccccc3nc2N2CCN(c3ccccc3F)CC2)cc1 | -2.44
60 | Cc1cc(C(=O)NNc2c(Cl)cccc2Cl)n(C(C)(C)C)n1 | 17
61 | CCCn1nnnc1SCC(=O)Nc1cccc(NC(=O)c2ccco2)c1 | -34.8
62 | Cc1cc(Cn2nc(-c3ccccc3)cc2C(=O)NCc2cccc(C(F)(F)F)c2)on1 | 10.8
63 | CC(=O)CCS(=O)(=O)c1ccc(C)c(C)c1 | 1.19
64 | Cc1cccc(/C(N)=N/OC(=O)c2cccc3ccccc23)c1 | 6.68
65 | O=C(NCC(c1ccco1)N1CCCCC1)c1ccc(OCc2ccccc2)cc1 (stereo not drawn) | -44.7
66 | CCN(CC)c1nc(N2CCOCC2)nc2ccccc12.Cl | -48.3
67 | COc1ccccc1CN1CCNC(=O)C1CC(=O)NCC1CCOCC1 (stereo not drawn) | -4.72
68 | Cc1cc2c(cc1C)/C(=N/NC(=O)c1ccccn1)CCC2 | -34.4
69 | Cc1cc(C(F)(F)F)nc(SCC(=O)c2cccc([N+](=O)[O-])c2)n1 | -20.1

Row | Compound | hERG current change (%, negative = inhibition) at 10uM [%]
70 | O=C(N/N=C/c1c(O)n(-c2ccc(Cl)cn2)c(=O)c2ccccc12)C1CC1 | -4.78
71 | COc1ccc(CCn2c(C)ccc2C)cc1OC | 7.84
72 | COc1ccccc1NS(=O)(=O)c1cccc(C(=O)NCC(c2ccco2)N2CCCC2)c1 (stereo not drawn) | -22.8
73 | Cc1cc(=O)oc2c3c(cc(OCC(=O)Nc4cccnc4)c12)OC(C)(C)CC3 | 12.8
74 | Cc1ccc(NC(=O)CC2SC(=NCC3CCCO3)NC2=O)cc1Cl (stereo not drawn) | -3.57
75 | Cc1cc(=O)n2[nH]c(CCC(=O)O)nc2n1 | 13.8
76 | Cc1cc(C)c2c(N)c(C(=O)Nc3ccccc3F)sc2n1 | 12.4
77 | CC1=C(C(=O)OC2CCCCCCC2)C(c2ccc(O)cc2)NC(=O)N1 (stereo not drawn) | -17.3
78 | COc1ccc(C(=O)C2CCCN(C3Cc4ccccc4C3)C2)cc1OC (stereo not drawn) | -76.6
79 | CCCc1nc2oc3c(NCC4CCCO4)ncnc3c2c2c1COC(C)(C)C2 (stereo not drawn) | -42.3
80 | Cc1cccc(NC(=O)c2ccccc2[N+](=O)[O-])n1 | 14.7
81 | O=C(c1ccccc1)N1CCCC(c2nc3c(nnn3Cc3ccccc3)c(=O)[nH]2)C1 (stereo not drawn) | -3.63
82 | CC/C(=N\Nc1ccccc1[N+](=O)[O-])c1ccc(O)cc1 | 18.7
83 | COc1ccc(/C=C/c2c(-c3cccc(C)c3)oc3ccc(N4CCOCC4)cc23)cc1 | 22.5
84 | CCCOC(=O)Cc1c(O)c2ccccc2[nH]c1=O | 16.9
85 | COCCCn1c(C)nnc1-c1cnn(-c2ccccc2)c1N | 19.7
86 | Cc1nn(CC(=O)Nc2ccccn2)c(C)c1[N+](=O)[O-] | 8.36
87 | COc1ccc(CS(=O)(=O)CC(C)(O)c2ccccc2Cl)cc1 (stereo not drawn) | 2.63
88 | CCn1c(SCC(=O)Nc2nccs2)nnc1C1CC1 | 19.8
89 | O=C(Nc1nccs1)C(c1ccccc1)N1CCCC1 (stereo not drawn) | -7.89
90 | O=C(CN1C(=O)C2CC=CCC2C1=O)NCC1COc2ccccc2O1 (stereo not drawn) | 1.42
